From patent US20250051460A1 (Boehringer Ingelheim, published 2025)

T1: human VEGF-A (human, UniProt P15692-4 27-191)
T1 sequence (looked up): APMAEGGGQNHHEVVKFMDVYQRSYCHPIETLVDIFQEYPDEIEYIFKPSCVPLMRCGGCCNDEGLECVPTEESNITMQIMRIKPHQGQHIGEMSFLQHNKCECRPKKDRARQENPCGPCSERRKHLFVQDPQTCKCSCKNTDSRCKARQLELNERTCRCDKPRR


Key:
Assay in all cases: cell-based or functional assay
human TrkB receptor [1] = target: T2, human TrkB receptor (human, UniProt Q16620 32-822)
human TrkB receptor [2] = target: T2, human TrkB receptor; remark: listed apart in the source
rat TrkB receptor = rat TrkB receptor (rat, UniProt Q63604 32-821)
human VEGF-A = target: T1, human VEGF-A

rat TrkB receptor, sequence (Q63604 32-821): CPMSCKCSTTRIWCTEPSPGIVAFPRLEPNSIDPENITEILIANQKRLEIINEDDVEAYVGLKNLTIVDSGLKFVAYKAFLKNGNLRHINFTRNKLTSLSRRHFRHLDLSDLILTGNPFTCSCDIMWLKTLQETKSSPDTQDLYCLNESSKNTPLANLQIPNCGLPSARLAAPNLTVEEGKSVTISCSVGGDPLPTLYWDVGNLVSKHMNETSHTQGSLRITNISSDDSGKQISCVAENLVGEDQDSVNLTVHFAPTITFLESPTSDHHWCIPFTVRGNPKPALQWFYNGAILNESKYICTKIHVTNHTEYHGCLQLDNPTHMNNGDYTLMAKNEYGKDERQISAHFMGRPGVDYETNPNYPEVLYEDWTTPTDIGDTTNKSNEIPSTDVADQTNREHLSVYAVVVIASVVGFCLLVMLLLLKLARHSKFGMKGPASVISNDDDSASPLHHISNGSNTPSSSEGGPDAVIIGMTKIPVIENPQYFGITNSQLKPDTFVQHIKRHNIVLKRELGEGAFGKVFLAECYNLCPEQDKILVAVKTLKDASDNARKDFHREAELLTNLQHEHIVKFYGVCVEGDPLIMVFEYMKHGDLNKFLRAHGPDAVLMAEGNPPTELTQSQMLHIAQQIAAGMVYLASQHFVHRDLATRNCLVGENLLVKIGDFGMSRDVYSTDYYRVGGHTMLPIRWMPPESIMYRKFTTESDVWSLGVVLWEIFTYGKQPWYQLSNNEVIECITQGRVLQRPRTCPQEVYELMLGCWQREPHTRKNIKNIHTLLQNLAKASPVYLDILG
T2 sequence (Q16620 32-822): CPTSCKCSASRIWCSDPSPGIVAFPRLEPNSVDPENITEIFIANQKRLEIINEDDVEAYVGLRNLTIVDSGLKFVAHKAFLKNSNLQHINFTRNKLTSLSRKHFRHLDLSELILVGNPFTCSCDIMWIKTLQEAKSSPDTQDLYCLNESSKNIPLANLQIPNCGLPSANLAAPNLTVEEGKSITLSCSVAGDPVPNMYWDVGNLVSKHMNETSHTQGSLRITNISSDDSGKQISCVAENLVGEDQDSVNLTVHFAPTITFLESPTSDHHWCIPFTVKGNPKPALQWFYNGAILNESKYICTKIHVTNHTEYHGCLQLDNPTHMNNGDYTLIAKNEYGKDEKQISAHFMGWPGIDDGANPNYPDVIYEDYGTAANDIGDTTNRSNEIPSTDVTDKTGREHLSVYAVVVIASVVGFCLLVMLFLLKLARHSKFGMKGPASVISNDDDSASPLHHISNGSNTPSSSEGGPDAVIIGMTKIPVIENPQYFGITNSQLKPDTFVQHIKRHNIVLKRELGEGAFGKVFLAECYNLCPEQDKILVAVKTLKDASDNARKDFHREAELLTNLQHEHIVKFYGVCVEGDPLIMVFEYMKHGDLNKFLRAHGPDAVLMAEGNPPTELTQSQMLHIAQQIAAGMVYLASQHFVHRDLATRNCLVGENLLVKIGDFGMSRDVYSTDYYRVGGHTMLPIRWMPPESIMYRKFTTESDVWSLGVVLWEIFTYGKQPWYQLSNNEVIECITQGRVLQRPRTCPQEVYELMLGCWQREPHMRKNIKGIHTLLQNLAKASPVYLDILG

Row | EC50 (pERK) (human TrkB receptor [1]) [nM] | EC50 (pTrkB) (human TrkB receptor [1]) [nM] | TrkB-phosphorylation efficacy (AlphaLISA counts) (human TrkB receptor [2]) | TrkB-phosphorylation efficacy relative to parental clone without CC bridge (%) (human TrkB receptor [2]) | TrkB-phosphorylation potency (EC50, nM) (human TrkB receptor [2]) [nM] | TrkB-phosphorylation efficacy (AlphaLISA counts) (rat TrkB receptor) | TrkB-phosphorylation efficacy relative to parental clone without CC bridge (%) (rat TrkB receptor) | TrkB-phosphorylation potency (EC50, nM) (rat TrkB receptor) [nM] | concentration for full inhibition of VEGF-induced HRMEC proliferation (human VEGF-A) [nM] | Binder
1 | 0.406 | 2 |  |  |  |  |  |  |  | TPP-19986 (bispecific antibody, human IgG1, kappa) heavy: EVQLVESGGGLVQPGGSLRLSCAASGYDFTHYGMNWVRQAPGKGLEWVGWINTYTGEPTYAADFKRRFTFSLDTSKSTAYLQMNSLRAEDTAVYYCAKYPYYYGTSHWYFDVWGQGTLVTVSSASTKGPSVFPLAPSSKSTSGGTAALGCLVKDYFPEPVTVSWNSGALTSGVHTFPAVLQSSGLYSLSSVVTVPSSSLGTQTYICNVNHKPSNTKVDKRV[in this place human IgG1 Fc with changes]GGGGSGGGGSQVQLVQSGAEVKKPGASVKVSCKASGYTFTNYDIIWVRQAPGQGLEWMGYINPYNDGTKYNEKFKGRVTMTRDTSTSTVYMELSSLRSEDTAVYYCARLLKYRRFRYYAIDYWGQGTTVTVSSGGSEGKSSGSGSESKSTGGSDIQMTQSPSSLSASVGDRVTITCRTSENVYSNLAWYQQKPGKAPKLLIYAASNLQSGVPSRFSGSGSGTDYTFTISSLQPEDIATYYCQHFWGSPFTFGQGTKLEIK light: DIQLTQSPSSLSASVGDRVTITCSASQDISNYLNWYQQKPGKAPKVLIYFTSSLHSGVPSRFSGSGSGTDFTLTISSLQPEDFATYYCQQYSTVPWTFGQGTKVEIKRTVAAPSVFIFPPSDEQLKSGTASVVCLLNNFYPREAKVQWKVDNALQSGNSQESVTEQDSKDSTYSLSSTLTLSKADYEKHKVYACEVTHQGLSSPVTKSFNRGEC
2 | 0.381 | 2.16 |  |  |  |  |  |  |  | TPP-19987 (bispecific antibody, human IgG1, kappa) heavy: EVQLVESGGGLVQPGGSLRLSCAASGYDFTHYGMNWVRQAPGKGLEWVGWINTYTGEPTYAADFKRRFTFSLDTSKSTAYLQMNSLRAEDTAVYYCAKYPYYYGTSHWYFDVWGQGTLVTVSSASTKGPSVFPLAPSSKSTSGGTAALGCLVKDYFPEPVTVSWNSGALTSGVHTFPAVLQSSGLYSLSSVVTVPSSSLGTQTYICNVNHKPSNTKVDKRV[in this place human IgG1 Fc with changes]GGGGSGGGGSGGGGSGGGGSQVQLVQSGAEVKKPGASVKVSCKASGYTFTNYDIIWVRQAPGQGLEWMGYINPYNDGTKYNEKFKGRVTMTRDTSTSTVYMELSSLRSEDTAVYYCARLLKYRRFRYYAIDYWGQGTTVTVSSGGSEGKSSGSGSESKSTGGSDIQMTQSPSSLSASVGDRVTITCRTSENVYSNLAWYQQKPGKAPKLLIYAASNLQSGVPSRFSGSGSGTDYTFTISSLQPEDIATYYCQHFWGSPFTFGQGTKLEIK light: DIQLTQSPSSLSASVGDRVTITCSASQDISNYLNWYQQKPGKAPKVLIYFTSSLHSGVPSRFSGSGSGTDFTLTISSLQPEDFATYYCQQYSTVPWTFGQGTKVEIKRTVAAPSVFIFPPSDEQLKSGTASVVCLLNNFYPREAKVQWKVDNALQSGNSQESVTEQDSKDSTYSLSSTLTLSKADYEKHKVYACEVTHQGLSSPVTKSFNRGEC
3 |  |  | 6640 | 100 | 8.09 | 19700 | 100 | 4.21 |  | TPP-22180 (bispecific antibody, human IgG1, kappa) heavy: QVQLVQSGGGLVQPGGSLRLSCAASGYDFTHYGMNWVRQAPGKGLEWVGWINTYTGEPTYAADFKRRFTFSLDTSKSTAYLQMNSLRAEDTAVYYCAKYPYYYGTSHWYFDVWGQGTLVTVSSASTKGPSVFPLAPSSKSTSGGTAALGCLVKDYFPEPVTVSWNSGALTSGVHTFPAVLQSSGLYSLSSVVTVPSSSLGTQTYICNVNHKPSNTKVDKRV[in this place human IgG1 Fc with changes]GGGGSGGGGSQVQLVQSGAEVKKPGASVKVSCKASGYTFTNYDIIWVRQAPGQGLEWMGYINPYNDGTKYNEKFKGRVTMTRDTSTSTVYMELSSLRSEDTAVYYCARLLKYRRFRYYAIDYWGQGTTVTVSSGGSEGKSSGSGSESKSTGGSDIQMTQSPSSLSASVGDRVTITCRTSENVYSNLAWYQQKPGKAPKLLIYAASNLQSGVPSRFSGSGSGTDYTFTISSLQPEDIATYYCQHFWGSPFTFGQGTKLEIK light: DIQLTQSPSSLSASVGDRVTITCSASQDISNYLNWYQQKPGKAPKVLIYFTSSLHSGVPSRFSGSGSGTGFTLTISSLQPEDFATYYCQQYSTVPWTFGQGTKVEIKRTVAAPSVFIFPPSDEQLKSGTASVVCLLNNFYPREAKVQWKVDNALQSGNSQESVTEQDSKDSTYSLSSTLTLSKADYEKHKVYACEVTHQGLSSPVTKSFNRGEC
4 |  |  | 7610 | 115 | 3.88 | 21800 | 111 | 2.01 | 0.25 | TPP-22204 (bispecific antibody, human IgG1, kappa) heavy: QVQLVQSGGGLVQPGGSLRLSCAASGYDFTHYGMNWVRQAPGKGLEWVGWINTYTGEPTYAADFKRRFTFSLDTSKSTAYLQMNSLRAEDTAVYYCAKYPYYYGTSHWYFDVWGQGTLVTVSSASTKGPSVFPLAPSSKSTSGGTAALGCLVKDYFPEPVTVSWNSGALTSGVHTFPAVLQSSGLYSLSSVVTVPSSSLGTQTYICNVNHKPSNTKVDKRV[in this place human IgG1 Fc with changes]GGGGSGGGGSQVQLVQSGAEVKKPGASVKVSCKASGYTFTNYDIIWVRQAPGQCLEWMGYINPYNDGTKYNEKFKGRVTMTRDTSTSTVYMELSSLRSEDTAVYYCARLLKYRRFRYYAIDYWGQGTTVTVSSGGSEGKSSGSGSESKSTGGSDIQMTQSPSSLSASVGDRVTITCRTSENVYSNLAWYQQKPGKAPKLLIYAASNLQSGVPSRFSGSGSGTDYTFTISSLQPEDIATYYCQHFWGSPFTFGCGTKLEIK light: DIQLTQSPSSLSASVGDRVTITCSASQDISNYLNWYQQKPGKAPKVLIYFTSSLHSGVPSRFSGSGSGTGFTLTISSLQPEDFATYYCQQYSTVPWTFGQGTKVEIKRTVAAPSVFIFPPSDEQLKSGTASVVCLLNNFYPREAKVQWKVDNALQSGNSQESVTEQDSKDSTYSLSSTLTLSKADYEKHKVYACEVTHQGLSSPVTKSFNRGEC
5 |  |  | 8410 | 149 | 4.33 | 25800 | 122 | 3.31 | 0.25 | TPP-22216 (bispecific antibody, human IgG1, kappa) heavy: QVQLVQSGGGLVQPGGSLRLSCAASGYDFTHYGMNWVRQAPGKGLEWVGWINTYTGEPTYAADFKRRFTFSLDTSKSTAYLQMNSLRAEDTAVYYCAKYPYYYGTSHWYFDVWGQGTLVTVSSASTKGPSVFPLAPSSKSTSGGTAALGCLVKDYFPEPVTVSWNSGALTSGVHTFPAVLQSSGLYSLSSVVTVPSSSLGTQTYICNVNHKPSNTKVDKRV[in this place human IgG1 Fc with changes]GGGGSGGGGSDIQMTQSPSSLSASVGDRVTITCRTSENVYSNLAWYQQKPGKAPKLLIYAASNLQSGVPSRFSGSGSGTDYTFTISSLQPEDIATYYCQHFWGSPFTFGCGTKLEIKGGSEGKSSGSGSESKSTGGSQVQLVQSGAEVKKPGASVKVSCKASGYTFTNYDIIWVRQAPGQCLEWMGYINPYNDGTKYNEKFKGRVTMTRDTSTSTVYMELSSLRSEDTAVYYCARLLKYRRFRYYAIDYWGQGTTVTVSS light: DIQLTQSPSSLSASVGDRVTITCSASQDISNYLNWYQQKPGKAPKVLIYFTSSLHSGVPSRFSGSGSGTGFTLTISSLQPEDFATYYCQQYSTVPWTFGQGTKVEIKRTVAAPSVFIFPPSDEQLKSGTASVVCLLNNFYPREAKVQWKVDNALQSGNSQESVTEQDSKDSTYSLSSTLTLSKADYEKHKVYACEVTHQGLSSPVTKSFNRGEC
6 |  |  | 5640 | 100 | 12.2 | 21200 | 100 | 18.9 |  | TPP-22192 (bispecific antibody, human IgG1, kappa) heavy: QVQLVQSGGGLVQPGGSLRLSCAASGYDFTHYGMNWVRQAPGKGLEWVGWINTYTGEPTYAADFKRRFTFSLDTSKSTAYLQMNSLRAEDTAVYYCAKYPYYYGTSHWYFDVWGQGTLVTVSSASTKGPSVFPLAPSSKSTSGGTAALGCLVKDYFPEPVTVSWNSGALTSGVHTFPAVLQSSGLYSLSSVVTVPSSSLGTQTYICNVNHKPSNTKVDKRV[in this place human IgG1 Fc with changes]GGGGSGGGGSDIQMTQSPSSLSASVGDRVTITCRTSENVYSNLAWYQQKPGKAPKLLIYAASNLQSGVPSRFSGSGSGTDYTFTISSLQPEDIATYYCQHFWGSPFTFGQGTKLEIKGGSEGKSSGSGSESKSTGGSQVQLVQSGAEVKKPGASVKVSCKASGYTFTNYDIIWVRQAPGQGLEWMGYINPYNDGTKYNEKFKGRVTMTRDTSTSTVYMELSSLRSEDTAVYYCARLLKYRRFRYYAIDYWGQGTTVTVSS light: DIQLTQSPSSLSASVGDRVTITCSASQDISNYLNWYQQKPGKAPKVLIYFTSSLHSGVPSRFSGSGSGTGFTLTISSLQPEDFATYYCQQYSTVPWTFGQGTKVEIKRTVAAPSVFIFPPSDEQLKSGTASVVCLLNNFYPREAKVQWKVDNALQSGNSQESVTEQDSKDSTYSLSSTLTLSKADYEKHKVYACEVTHQGLSSPVTKSFNRGEC
